Measurements from PubChem BioAssay AID995 (National Center for Advancing Translational Sciences (NCATS), 2007).
Out of some 72,000 compounds screened, about 710 (0.99%) were called active. This list was built around the results that the source calls inconclusive (neither active nor inactive); the mix of calls is not that of the screen. Calls come from the whole dose curve; as a rule, active = well fitted inhibition curve with a large enough effect; inconclusive = small, poorly fitted or top-dose-only effect; inactive = no such curve, though single readings can be large or run the other way. Potencies of inconclusive entries are left out as doubtful fits.

Experiment: qHTS Assay for Inhibitors of the ERK Signaling Pathway using a Homogeneous Screening Assay; note: nearly all actives have a fitted effect of over 55% in size
Details: HEK293-V1b, vasopressin-stimulated pERK AlphaScreen; series mostly up to 57.5 µM
In short: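 HEK293 cells stably expressing V1b receptor, preincubated 30 min at 37 °C with compound, then stimulated 5 min with 25 nM vasopressin. Phospho-ERK by AlphaScreen SureFire after 5 h RT; normalized to DMSO and vasopressin; AC50 by Hill fit.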
Potency is the fitted concentration of half-maximal effect; tags give direction and shape of the fitted curve.

| Structure (SMILES) | Potency |
| --- | --- |
| Cn1c(CN2CCN(c3ccc(Cl)cc3)CC2)nc2ccccc21 | inconclusive [inhibitor, partial curve] |
| C[C@@]12CC[C@@H]3c4ccc(O)cc4CC[C@H]3[C@H]1C[C@@H](O)[C@H]2O | inactive |
| Cc1cc2occ(CC(=O)NC3=NCCS3)c2cc1C(C)C | inconclusive [inhibitor, single point] |
| COc1ccc(C(=O)Nc2cccc(-c3nc4ncccc4o3)c2C)cc1OC | inactive |
| Nc1nc(CN2CCN(c3ccccn3)CC2)nc(Nc2ccc(Cl)cc2)n1 | active: 31.6 µM |
| CCCOc1ccc(-c2nc(C#N)c(N3CCN(C)CC3)o2)cc1 | inactive |
| COc1cc2ccccc2cc1-c1nnc(COc2ccccc2)o1 | inactive |
| COc1ccc2c(CSc3nc4nc(C)cc(C)n4n3)cc(=O)oc2c1 | inconclusive [inhibitor, partial curve] |
| CSCCOC(=O)c1[nH]c2c(c1C)C(=O)CC(c1ccco1)C2 (stereo unspecified) | inconclusive [inhibitor, single point] |
| COC(=O)c1sc(NC(=O)COc2ccccc2OC)nc1C | inconclusive [inhibitor, partial curve, poor fit] |
| COc1cc(OC)c2c(c1)OC(c1ccccc1)CC2=O (stereo unspecified) | inconclusive [inhibitor, partial curve] |
| N#Cc1cccc(-c2ccc3ncnc(NCc4ccccc4)c3c2)c1 | inconclusive [inhibitor, partial curve] |
| CCC(C)NC(=O)CS(=O)Cc1nc(-c2ccccc2C)oc1C (stereo unspecified) | inconclusive [inhibitor, partial curve] |
| CCN1CCN(c2c(Cl)cccc2NC(=O)c2ccc(Br)o2)CC1 | inconclusive [inhibitor, partial curve] |
| CCNc1ncc2nc(C)c(=O)n(C[C@H]3CCCO3)c2n1 | inconclusive [inhibitor, partial curve] |
| CSc1nc(N(CCO)CCO)c2sc3nc(-c4ccco4)c4c(c3c2n1)CCC4 | inconclusive [inhibitor, partial curve] |
| COc1ccc(CNc2nc(-c3cccnc3)nn2C(=O)c2ccco2)cc1 | inactive |
| Cc1c[nH]c(=O)n(CCCN2CCN(c3ccccc3OCC(F)(F)F)CC2)c1=O | inactive |
| Cc1ccccc1Cn1ccc(NC(=O)c2cc3nc(-c4ccco4)cc(C(F)(F)F)n3n2)n1 | inactive |
| Clc1ccc2nc(NC3=NCN(CCN4CCOCC4)CN3)nc(-c3ccccc3)c2c1 | inactive |
| CCc1ccc2[nH]c(=O)c(C(c3nnnn3CCOC)N3CCN(c4ccc(F)cc4)CC3)cc2c1 (stereo unspecified) | inconclusive [inhibitor, partial curve] |
